Measured values published in PMC4336329 (PLoS ONE, 2015).
Among all 310,000 compounds or so, about 14,000 (4.5%) showed an effect of 50% or more. Effects have a minus sign here. Some of the results follow.

Biological target: human ether-à-go-go-related gene (hERG) potassium channel (human, UniProt Q12809)
Test: primary screen, population patch clamp on CHO cells stably expressing hERG
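Note: peak tail current of the secondary pulse compared with the same well before compound.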

Sequence of human ether-à-go-go-related gene (hERG) potassium channel (Q12809 whole entry, looked up): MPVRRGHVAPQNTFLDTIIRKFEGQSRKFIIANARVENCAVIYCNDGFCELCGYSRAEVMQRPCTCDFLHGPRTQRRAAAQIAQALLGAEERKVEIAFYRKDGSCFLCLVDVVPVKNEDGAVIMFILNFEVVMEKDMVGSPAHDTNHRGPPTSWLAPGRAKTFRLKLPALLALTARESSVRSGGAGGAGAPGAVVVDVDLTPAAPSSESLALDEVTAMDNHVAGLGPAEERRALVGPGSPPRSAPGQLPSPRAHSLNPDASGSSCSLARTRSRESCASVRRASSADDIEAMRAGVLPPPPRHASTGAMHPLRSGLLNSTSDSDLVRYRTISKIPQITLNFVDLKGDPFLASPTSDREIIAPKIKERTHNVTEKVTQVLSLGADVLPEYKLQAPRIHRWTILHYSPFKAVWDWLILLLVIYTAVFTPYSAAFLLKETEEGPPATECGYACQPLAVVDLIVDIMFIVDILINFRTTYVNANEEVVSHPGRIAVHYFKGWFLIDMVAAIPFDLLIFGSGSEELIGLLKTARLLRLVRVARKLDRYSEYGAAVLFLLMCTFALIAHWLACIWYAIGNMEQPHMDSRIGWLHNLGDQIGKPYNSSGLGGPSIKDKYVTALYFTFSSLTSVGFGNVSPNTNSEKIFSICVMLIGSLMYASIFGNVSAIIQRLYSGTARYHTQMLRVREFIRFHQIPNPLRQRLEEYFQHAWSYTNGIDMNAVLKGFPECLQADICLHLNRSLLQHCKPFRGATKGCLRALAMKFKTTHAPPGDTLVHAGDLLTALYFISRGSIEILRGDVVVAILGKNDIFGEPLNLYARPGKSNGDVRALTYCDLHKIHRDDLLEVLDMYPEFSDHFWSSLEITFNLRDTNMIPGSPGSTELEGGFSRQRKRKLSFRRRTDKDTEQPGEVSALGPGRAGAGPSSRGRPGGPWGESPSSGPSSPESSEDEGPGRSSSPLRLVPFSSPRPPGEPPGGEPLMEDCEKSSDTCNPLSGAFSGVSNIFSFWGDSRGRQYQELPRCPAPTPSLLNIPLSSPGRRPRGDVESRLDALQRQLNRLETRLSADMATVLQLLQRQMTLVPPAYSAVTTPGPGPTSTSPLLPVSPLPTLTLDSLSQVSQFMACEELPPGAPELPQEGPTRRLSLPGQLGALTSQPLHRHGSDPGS

Compound	hERG current change (%, negative = inhibition) at 10uM
CCC(C)Nc1nc(Cl)nc(NCCOc2ccccc2)n1 (centres unmarked)	-1.39%
Cc1cc(C(=O)OCC(=O)Nc2ccccc2C)c(C)o1	4.98%
O=C(c1cc(-c2cccc(O)c2)on1)N1CCOCC1	20.5%
CN(C(=O)/C=C/c1ccccc1)C1CCCCC1	1.32%
CCN(C(=O)c1ccc(=O)[nH]c1)c1c(N)n(Cc2ccccc2)c(=O)[nH]c1=O	-8.25%
COc1ccc(N2C(=O)C(CN3CCN(C)CC3)C2c2ccccc2)cc1 (centres unmarked)	-16%
CCOC(=O)C1CCCN(CCCc2ccccc2)C1.Cl (centres unmarked)	-46.3%
CC1CCCC(C)N1/N=C/c1ccc(O)c(O)c1 (centres unmarked)	1.18%
O=C(Cn1nc(-c2ccc(Cl)cc2)ccc1=O)NCCN1CCOCC1	-19.2%
O=C(c1cccs1)N1CCN(CCc2ccccc2)CC1	-48.6%
Cc1ccccc1NC(=O)Cn1c(NCC(C)O)nc2ccccc21 (centres unmarked)	-2.11%
Cc1cc(/C=C2\C(=O)NC(=O)N(C)C2=O)c(C)n1-c1ccc2c(c1)OCO2	14.7%
CC1CCCN(S(=O)(=O)c2ccc(Cl)s2)C1 (centres unmarked)	-1.51%
Cc1ncc([N+](=O)[O-])n1CC(=O)Nc1ccccc1	18.5%
CCOC(=O)c1cnc(-n2nc(C)cc2C)nc1Nc1ccc(OC)cc1	-10.6%
Cc1ccc(CN2CC(C(=O)Nc3ncccc3C)CC2=O)cc1 (centres unmarked)	-14%
O=C(COc1ncnc2sccc12)N1CCN(C(=O)c2ccco2)CC1	1.86%
Cc1ccc(C)c(NC2=NCC(=O)N2c2ccc3c(c2)OCCO3)c1	-8.96%
COc1ccc(Cn2c(CCC(=O)NCCC(C)C)nc3ncccc3c2=O)cc1	-43.1%
O=C(NCC1CC1)c1cc(-c2ccccc2)nn1CC1CC(c2cccc([N+](=O)[O-])c2)=NO1 (centres unmarked)	-60.8%
c1coc(CNc2nc(-c3ccncc3)cs2)c1	-3.17%
CC(C)(C)NC(=O)C1N(c2cccnc2)C(=O)C2C(C(=O)Nc3ccccc3F)C3(C)C=CC21O3 (centres unmarked)	-11.6%

Compound	hERG current change (%, negative = inhibition) at 10uM
O=[N+]([O-])c1nn(-c2ccc(Cl)cc2)n(O)c1=NCc1ccccc1Cl	-8.2%
O=C(Cn1cc(C(F)(F)F)cc(Cl)c1=O)Nc1cc(Cl)cc(Cl)c1	5.67%
Cc1ccc(C(=O)C(C)OC(=O)c2cc(=O)[nH]c3ccccc23)cc1 (centres unmarked)	18.5%
COc1ccc(-n2nnnc2SCC(=O)N2C(C)CCCC2C)c(OC)c1 (centres unmarked)	-20.2%
Cn1c(=O)c(C(=O)NC2CCCCCC2)c(O)c2ccccc21	16.8%
C/C=C/C(=O)Nc1cccc(C2=NOC3(C2)C[C@@H](C(N)=O)N(C(=O)C(c2ccccc2)c2ccccc2)C3)c1 (some centres unmarked)	-5.73%
Cc1cc([N+](=O)[O-])c(C)cc1-c1ccc(/C=N/NC(=O)Cn2nnnc2N)o1	21.1%
CC(C)C(=O)Nc1ccc(C(=O)NNC(=O)CCc2ccccc2)cc1	6.55%
CC/C(=N\NC(=O)c1ccccc1O)c1c(O)n(Cc2ccccc2)c(=O)[nH]c1=O	-4.37%
Cc1ccc(N2CCN(c3ccc(C)cc3)C2c2ccccn2)cc1	-8.31%
Cc1ccc(C)c(OCc2nnc(NC(=O)c3ccc4c(c3)OCO4)s2)c1	0.503%
O=[N+]([O-])c1c(-c2cn[nH]c2)n[nH]c1-c1cn[nH]c1	7.11%
COC(=O)C1=C(C(=O)OC)[C@@H]2N(C)c3ccc(OC)cc3[C@@]23C[C@@H](C(=O)OC)N(C(=O)C2CCC2)C3=N1	-50%
COc1ccc(N(CC(=O)NCCSCc2ccco2)S(=O)(=O)c2ccccc2)cc1	-9.08%
CCSc1ccc([C@@H]2[C@H]3C(=O)N(C)C(=O)[C@H]3[C@]3(C(=O)OC)CCCCN23)cc1OC.O=C(O)C(F)(F)F	-8.41%
Cc1cccc(CCNC(=O)C2CCC(=O)N(Cc3ccc(Cl)cc3)C2)n1 (centres unmarked)	5.05%
N#Cc1ccc(OCC(=O)N/N=C/C2CC=CCC2)cc1 (centres unmarked)	-16.4%
Br.OCCn1c(-c2ccccc2)csc1=Nc1ccccc1	-19.6%
O=C(CSc1nc2ccccc2s1)NCCOc1ccccc1	-1.83%
Cc1ccc(N(CCC(=O)Nc2nnc(C3CC3)s2)S(=O)(=O)c2ccccc2)cc1	-16.2%
O=S(=O)(NC1CCCCC1Nc1ccc(Cl)cc1)c1ccccc1 (centres unmarked)	7.5%
COc1ccc(-c2csc(NC(=O)CCCc3nc4ccccc4c(=O)[nH]3)n2)cc1OC	-22.4%

Compound	hERG current change (%, negative = inhibition) at 10uM
COc1cc2c(C(=O)N3CCN(c4cccc(Cl)c4)CC3)cn(CC(C)C)c(=O)c2cc1OC	-63.6%
Cn1c(=O)c2c(SCC(=O)Nc3cccc(F)c3)nc(-c3ccco3)nc2n(C)c1=O	10.7%
CN(NC(=O)Nc1ccccc1)c1cnn(C)c(=O)c1Cl	27.4%
O=P(Cc1ccccc1O)(c1ccccc1)c1ccccc1	3.52%
CN(C(=O)c1ccc2c(c1)OCO2)C1(C(=O)NC2CCCC2)CCCCC1	-0.155%
CC(Oc1ccc2c(-c3ccccc3)cc(=O)oc2c1)C(=O)NCCCn1ccnc1 (centres unmarked)	-52.5%
COc1ccccc1-c1nc(C#N)c(N2CCN(C(c3ccccc3)c3ccccc3)CC2)o1	6.58%
Cc1ccc(NC(=O)c2cnccn2)nc1	6.83%
C=CCOc1c(Cl)cc(/C=N/O)cc1OC	7.64%
Cc1ccc(NC(=O)CSc2nnc(Cn3c(=O)sc4ccccc43)n2C)cc1	2.3%
O=C1CN(C(=O)c2ccc(Br)o2)C(c2ccc(F)cc2)c2cc(Cl)ccc2N1 (centres unmarked)	-11.6%
NC(=NC(=O)c1cccc(C(F)(F)F)c1)c1ccc(C(F)(F)F)cn1	-8.17%
O=C(c1ccc2c(c1)ncn2C1CCCCC1)N1CCC2(CC1)OCCO2	-2.01%
Nc1cc(Oc2ccc(Cl)cc2Cl)nc(N)n1	13%
COc1cccc(N2CCN(C3CC(=O)N(c4ccc(C)c(Cl)c4)C3=O)CC2)c1 (centres unmarked)	-9.03%
COCc1cc(C)nc(SCC(=O)Nc2cc(C(F)(F)F)ccc2N2CCOCC2)c1C#N	-18.3%
CC(C)CN(C(=O)COC(=O)c1c(Cl)ccc(Cl)c1Cl)C1CCS(=O)(=O)C1 (centres unmarked)	-23.4%
CCOC(=O)NC(=S)Nc1ccc(C(C)(C)C)cc1Br	4.68%
COc1ccc(CNC(=O)C/C(C)=N/NC(=O)c2cnccn2)cc1	30.8%
COc1cccc(N2CCN(Cc3ccco3)CC2)c1	21.4%
O=C(NC12CC3CC(CC(C3)C1)C2)N1CCN(C(=O)C2CCCO2)CC1 (centres unmarked)	3.22%
O=C(COc1ccc(S(=O)(=O)NC2CCCCC2)cc1)N1CCN(c2ccc(F)cc2)CC1	-16.6%

Compound	hERG current change (%, negative = inhibition) at 10uM
COc1cc(CNCc2ccccn2)ccc1OCC(=O)NC(C)(C)C.Cl	0.777%
COc1ccc(NC(C)=O)cc1S(=O)(=O)Nc1ccccc1C(=O)N1CCCC1	1.8%
CC(C)N(C(=O)CSc1nc2ccccc2n1Cc1ccccc1)C(C)C	-10.7%
COC(=O)c1ccc2c(=O)[nH]c(CSc3nc(-c4ccc(F)cc4)cs3)nc2c1	6.41%
CN1/C(=C\C(=O)c2oc3ccccc3c2N)C(C)(C)c2ccccc21	15.9%
COCCNC(=O)/C(C#N)=C/C=C/c1ccccc1[N+](=O)[O-]	6.93%
O=C(COC(=O)c1cc[n+]([O-])cc1)Nc1cc([N+](=O)[O-])ccc1Cl	-18.3%
Fc1cccc(F)c1CN1CCN(c2ncccn2)CC1	15.5%
Cc1noc(NS(=O)(=O)c2ccc(NC(=O)C34CC5CC(C3)CC(n3cnc(Br)n3)(C5)C4)cc2)c1C	4.56%
COc1cc2cc(CN(CCN3CCCC3)C(=O)Nc3ccc(F)cc3)c(=O)[nH]c2cc1OC	-7.92%
O=C(NCCCn1ccnc1)C(=O)NCC1OCCCN1S(=O)(=O)c1ccc(F)cc1 (centres unmarked)	16.6%
Cc1ccc(NC(=S)NCCc2ccccc2)nc1	0.15%
CC(NC(=O)C(C)N1C(=O)c2ccccc2C1=O)c1ccccc1 (centres unmarked)	1.68%
NC(=O)c1c(NC(=O)C2CC=CCC2C(=O)O)sc2c1CCCCC2 (centres unmarked)	16.9%
Cc1ccc(/C=N/NC(=O)CNC(=O)COc2ccccc2)o1	-6.13%
N#C/C(=C\c1cccnc1)C(=O)Nc1ccccc1	4.04%
Nc1c(C(=O)c2ccccc2)oc2ccccc12	10.5%
CCN(C(=O)c1ccco1)c1nnc(-c2ccc(OC)cc2)s1	10.6%
COc1ccc(NC(=O)CCC(=O)c2ccc(-c3ccccc3)cc2)cc1	7.34%
COC(=O)c1ccc(CN2CCCC(CO)(Cc3ccc(F)cc3F)C2)cc1 (centres unmarked)	-42.3%
